Measured values: paper PMC5700166
Only a part is listed here, and it is no random draw. The list includes weakly bound sequences.

Tests used:
Assay in all cases: protein-binding microarray (PBM)
Settings in all cases: PBM: ~300 nM protein, 6 mM HEPES pH 7.8, 80 mM KCl, 0.5 mM EDTA, 0.5 mM EGTA, 6% glycerol, 35 ng/ul poly-dIdC, 1% milk, 1 h, room temperature; Ap Aiptasia and Nv Nematostella (sea anemones) / Co Capsaspora / Aq Amphimedon (sponge) / Dm Drosophila / Hu human; RHD is the Rel homology domain; high values mean tight binding; most listed sequences are background and not binding sites; double strand, one strand shown
[1] = biological target: T1, GST-Ap-NF-kB RHD (UniProt A0A913YAJ5)
T1 sequence: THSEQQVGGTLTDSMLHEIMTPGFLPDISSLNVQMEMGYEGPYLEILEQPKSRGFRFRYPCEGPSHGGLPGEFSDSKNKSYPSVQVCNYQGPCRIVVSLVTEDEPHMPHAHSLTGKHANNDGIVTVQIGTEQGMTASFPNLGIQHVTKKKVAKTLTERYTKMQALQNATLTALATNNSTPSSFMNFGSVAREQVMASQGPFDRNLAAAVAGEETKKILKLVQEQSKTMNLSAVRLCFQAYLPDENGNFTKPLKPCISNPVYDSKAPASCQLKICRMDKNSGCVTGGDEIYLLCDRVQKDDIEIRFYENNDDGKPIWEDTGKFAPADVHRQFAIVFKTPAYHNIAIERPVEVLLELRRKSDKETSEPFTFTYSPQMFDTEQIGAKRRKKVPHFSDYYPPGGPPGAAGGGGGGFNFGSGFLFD

[2] = biological target: T2, GST-Nv-NF-kB (Cys allele) (UniProt E5G601)
T2 sequence: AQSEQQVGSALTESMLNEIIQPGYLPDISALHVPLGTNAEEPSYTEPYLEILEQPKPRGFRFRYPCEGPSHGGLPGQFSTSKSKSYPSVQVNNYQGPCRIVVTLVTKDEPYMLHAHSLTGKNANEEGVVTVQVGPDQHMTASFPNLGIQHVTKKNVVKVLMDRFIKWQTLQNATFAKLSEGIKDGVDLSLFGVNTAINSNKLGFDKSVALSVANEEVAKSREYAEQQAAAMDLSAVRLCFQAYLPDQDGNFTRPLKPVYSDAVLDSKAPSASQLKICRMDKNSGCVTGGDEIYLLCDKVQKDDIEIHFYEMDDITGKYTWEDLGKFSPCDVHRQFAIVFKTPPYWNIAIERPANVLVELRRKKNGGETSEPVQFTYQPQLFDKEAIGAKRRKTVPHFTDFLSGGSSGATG

[3] = biological target: T3, GST-Co-NF-kB (UniProt F1ARL5)
T3 sequence: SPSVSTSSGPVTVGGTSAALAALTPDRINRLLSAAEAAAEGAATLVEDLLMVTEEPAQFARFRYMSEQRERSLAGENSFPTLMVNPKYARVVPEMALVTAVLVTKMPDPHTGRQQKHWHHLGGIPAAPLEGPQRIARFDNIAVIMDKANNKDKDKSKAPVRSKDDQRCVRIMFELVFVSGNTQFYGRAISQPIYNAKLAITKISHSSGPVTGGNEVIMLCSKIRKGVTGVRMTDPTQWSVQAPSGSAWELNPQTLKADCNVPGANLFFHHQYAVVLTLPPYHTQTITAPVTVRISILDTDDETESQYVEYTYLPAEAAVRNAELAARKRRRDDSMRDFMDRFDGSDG

[4] = biological target: T4, GST-Dm-Relish (UniProt Q94527)
T4 sequence: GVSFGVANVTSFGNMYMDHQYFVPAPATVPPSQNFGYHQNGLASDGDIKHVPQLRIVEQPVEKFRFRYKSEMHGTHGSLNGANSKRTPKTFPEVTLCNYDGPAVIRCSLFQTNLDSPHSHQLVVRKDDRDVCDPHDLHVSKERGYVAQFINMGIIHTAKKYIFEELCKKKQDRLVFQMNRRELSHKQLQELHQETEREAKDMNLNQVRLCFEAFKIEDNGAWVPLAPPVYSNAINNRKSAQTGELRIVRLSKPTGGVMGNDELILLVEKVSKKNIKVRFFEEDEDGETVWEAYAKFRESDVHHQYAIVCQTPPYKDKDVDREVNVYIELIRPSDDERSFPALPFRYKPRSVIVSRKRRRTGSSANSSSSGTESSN

[5] = biological target: T5, GST-Aq-NF-kB (UniProt A9Y5G7)
T5 sequence: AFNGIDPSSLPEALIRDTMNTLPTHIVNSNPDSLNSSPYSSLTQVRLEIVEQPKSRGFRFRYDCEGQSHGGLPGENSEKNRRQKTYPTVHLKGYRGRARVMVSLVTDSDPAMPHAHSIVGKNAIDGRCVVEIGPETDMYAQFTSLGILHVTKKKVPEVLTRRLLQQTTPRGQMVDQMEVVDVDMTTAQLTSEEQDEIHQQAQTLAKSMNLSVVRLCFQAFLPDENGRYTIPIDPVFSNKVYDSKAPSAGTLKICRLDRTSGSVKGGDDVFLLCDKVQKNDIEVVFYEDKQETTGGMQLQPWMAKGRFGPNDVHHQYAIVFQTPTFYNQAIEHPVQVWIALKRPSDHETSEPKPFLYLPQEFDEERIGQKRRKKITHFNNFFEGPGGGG

Sequence	binding signal [1] [z-score]	binding signal [2] [z-score]	binding signal [3] [z-score]	binding signal [4] [z-score]	binding signal [5] [z-score]
CCGATTAACATCACGTTGACTCGTGATGTTAATCGGGTCTTGATTCGCTTGACGCTGCTG	-0.731	-0.981	-1.55	-0.305	-0.548
CCGATTAACATCACGGGCATTCCTGATGTTAATCGGGTCTTGATTCGCTTGACGCTGCTG	0.931	0.928	0.157	2.37	3.21
CCGATTAACATCACGTTCTAAAGTGATGTTAATCGGGTCTTGATTCGCTTGACGCTGCTG	-0.699	-0.909	-0.248	-0.00906	-0.596
CCGATTAACATCAGGCCCTCCACTGATGTTAATCGGGTCTTGATTCGCTTGACGCTGCTG	0.413	-0.486	-0.767	0.0521	0.395
CCGATTAACATCATACTCGCCGATGATGTTAATCGGGTCTTGATTCGCTTGACGCTGCTG	-0.0692	-0.737	-0.0711	-1.03	-0.372
CCGATTAACATCATGTGCAGTCTTGATGTTAATCGGGTCTTGATTCGCTTGACGCTGCTG	-0.0449	0.322	-0.51	0.0197	-0.188
CCGATTAACATCAATCGGGAGCGTGATGTTAATCGGGTCTTGATTCGCTTGACGCTGCTG	0.333	0.833	0.287	-0.316	0.0987
CCGATTAACATCAAAGTGGTCTTTGATGTTAATCGGGTCTTGATTCGCTTGACGCTGCTG	-0.979	0.12	-1.27	0.0268	-0.86
CCGATTAACATCATTAATGACGGTGATGTTAATCGGGTCTTGATTCGCTTGACGCTGCTG	0.494	-0.262	0.667	0.579	0.368
CCGATTAACATCACTACACGAGCTGATGTTAATCGGGTCTTGATTCGCTTGACGCTGCTG	0.379	-0.279	0.14	0.361	-0.285
CCGATTAACATCAACATGTAGGATGATGTTAATCGGGTCTTGATTCGCTTGACGCTGCTG	-0.599	-0.23	0.241	-0.453	-0.454
CCGATTAACATCAGGCAAATCCATGATGTTAATCGGGTCTTGATTCGCTTGACGCTGCTG	-0.351	0.0473	-0.189	-0.614	0.171
CCGATTAACATCAGGGCACTCCATGATGTTAATCGGGTCTTGATTCGCTTGACGCTGCTG	-0.0944	-0.521	-0.00903	-0.197	0.122
CCGATTAACATCAAGTATCTCGTTGATGTTAATCGGGTCTTGATTCGCTTGACGCTGCTG	-0.718	0.37	0.00372	-0.619	-0.577
CCGATTAACATCAGTAACTCGAATGATGTTAATCGGGTCTTGATTCGCTTGACGCTGCTG	-0.848	-0.948	-0.212	-0.739	-0.502
CCGATTAACATCATCGACAGCAGTGATGTTAATCGGGTCTTGATTCGCTTGACGCTGCTG	-0.248	-0.622	0.244	-0.596	-0.509
CCGATTAACATCATTCACCTTGGTGATGTTAATCGGGTCTTGATTCGCTTGACGCTGCTG	0.279	-0.0344	0.13	0.601	-0.00552
CCGATTAACATCAACAGAAAGTTTGATGTTAATCGGGTCTTGATTCGCTTGACGCTGCTG	-0.906	-0.293	-0.688	-0.114	-0.579
CCGATTAACATCAAGCGTACATCTGATGTTAATCGGGTCTTGATTCGCTTGACGCTGCTG	-0.685	-0.125	0.123	-0.0201	-0.241
CCGATTAACATCACTCAAGGTTTTGATGTTAATCGGGTCTTGATTCGCTTGACGCTGCTG	-0.095	-0.42	-0.0699	-0.479	-0.409
CCGATTAACATCAACGGATTTTCTGATGTTAATCGGGTCTTGATTCGCTTGACGCTGCTG	0.226	0.117	0.248	0.424	0.478
CCGATTAACATCACTTGCTTGCGTGATGTTAATCGGGTCTTGATTCGCTTGACGCTGCTG	-0.451	-0.254	-0.563	0.215	-0.653
CCGATTAACATCATGAAATTCCATGATGTTAATCGGGTCTTGATTCGCTTGACGCTGCTG	-1.17	-0.146	-0.374	0.27	0.222
CCGATTAACATCACGGAGAATCCTGATGTTAATCGGGTCTTGATTCGCTTGACGCTGCTG	-1.13	-1.39	-0.636	-0.319	1.18
CCGATTAACATCACGGGTTGCCCTGATGTTAATCGGGTCTTGATTCGCTTGACGCTGCTG	0.584	0.74	0.83	0.572	1.04
CCGATTAACATCATCGCTTCCACTGATGTTAATCGGGTCTTGATTCGCTTGACGCTGCTG	-0.571	-0.0402	-0.0602	-0.176	-0.478
CCGATTAACATCAACAGGTCCACTGATGTTAATCGGGTCTTGATTCGCTTGACGCTGCTG	0.241	-0.773	-0.351	-0.483	-0.372
CCGATTAACATCACGCGTCTACCTGATGTTAATCGGGTCTTGATTCGCTTGACGCTGCTG	0.227	0.205	-0.665	0.144	-0.281
